Measured values published in patent US4318925A (priority 1977, dated 1982).

What follows are compounds tested on herpes simplex type I (HF strain) (assay: microbe, parasite or virus in culture). Settings: 1000 TCD50, KB host cells, 72 hr at 37° C.
Description: Ex. 1. Effects of the compounds (I) on the growth of herpes virus in tissue cultures
Antiviral activities were determined by the tube dilution method. The cells used for the assay were KB cells.
KB cells were cultured in Eagle MEM medium. The medium was supplemented with 10% fetal calf serum.
The monolayer of cells grown in tube was exchanged to the fresh medium supplemented with 2% fetal calf serum, then 1000 TCD50 of herpes simplex type I (HF strain) and the test compound were added.
After 72 hr. incubation at 37° C. virus induced cytopathic effect (CPE) and the cytotoxicity of the compound were determined by microscopic examination.
`CCCCCCCCCCCOCC(=O)NC12CCCC3CC(CCC31)C2` (centres unmarked) [N-[3-(4-homoisotwistyl)]-2-undecyloxyacetamide] gave an MIC of 2.5 µg/mL (≈ 6.62 µM).
Work on `CCCCCOCC(=O)NC12CCCC3CC(CCC31)C2` (centres unmarked) [N-[3-(4-homoisotwistyl)]-2-pentyloxyacetamide] yielded an MIC of 5 µg/mL (≈ 17 µM).
`CCOCC(=O)NC12CCCC3CC(CCC31)C2` (centres unmarked) [N-[3-(4-homoisotwistyl)]-2-ethoxyacetamide] showed an MIC of 10 µg/mL (≈ 39.8 µM).
Compound `NC12CC3CC(CC(C3)C1)C2` [Amantadine hydrochloride, reference compound] has an MIC of 50 µg/mL.
Work on `CN(C)CCOCC(=O)NC12CCCC3CC(CCC31)C2` (centres unmarked) [N-[3-(4-homoisotwistyl)]-2-(2-dimethylaminoethoxy)-acetamide hydrochloride] yielded an MIC of 50 µg/mL.

In brackets after ≈: the same amount, converted by molar mass. Structures can show the parent of a compound that is named as a salt.
